Measurements from patent US20240041830A1, “CIRCULATING BIOMARKERS OF RESPONSE TO PD-1/PD-L1 BLOCKADE AND GSK-3 INHIBITION” (Brown University, priority 2022, published 2024).

System: SW480
Test: multicolor co-culture of SW480 and donor-derived CD8+ T cells
Details: then co-cultured with donor-derived CD8+ T cells
Description: Isolation of donor-derived CD8+ T cells. An Easy Step Human CD8+ T Cell Isolation Kit was used to isolate CD8+ T cells from a donor PBMC sample via negative selection (Cat #, 17913, Stem Cell Technologies, Vancouver, Canada).
Multicolor immune cell co-culture experiments. […] Immune cell monocultures were treated with DMSO, 5 μM or 10 μM elraglusib and cell viability was monitored to ensure that the concentrations of drug used were not cytotoxic to immune cells. Colorectal cancer cells were labeled using CellTracker™ Green CMFDA (5-chloromethyl fluorescein diacetate), immune cells (NK-92, TALL-104) were labeled using CellTracker™ Blue CMAC Dye (7-amino-4-chloromethylcoumarin). Ethidium homodimer-1 (EthD-1) was used as a marker of cell death (Invitrogen, Waltham, MA, USA). 10× images were captured using a Nikon Ti-U Inverted Fluorescence Microscope and NIS-Elements F Package imaging software 3.22.00 Build 710 (Nikon Instruments Inc., New York, NY, USA). The number of red/green color cells in random fields was determined using thresholding and particle analysis in the Fiji modification (RRID: SCR_002285) of ImageJ and expressed as a dead/live cell ratio. […] At least one hundred cells were evaluated per sample, with three independent replicates. […]

## Cn1cc(C2=C(c3coc4ccc(F)cc34)C(=O)NC2=O)c2cc3c(cc21)OCO3 [elraglusib]
Tumor cells pre-treated 5 μM for twenty-four hours
  dead cells out of total cells: 65%
Tumor cells pre-treated 10 μM for twenty-four hours
  dead cells out of total cells: 70%
